Consider 25 compounds from ChEMBL document CHEMBL4888484, “Replenishing the malaria drug discovery pipeline: Screening and hit evaluation of the MMV Hit Generation Library 1 (HGL1) against asexual blood stage Plasmodium falciparum ,using a nano luciferase reporter read-out” (2022).

Structures are written as SMILES. In all, about 150,000 compounds went through this assay and about 540 (0.36%) showed an effect of 50% or more. The list shows a part of the results.

The subject of this assay is Plasmodium falciparum. The assay can be described thus: Primary screen in NF54 nanoGlo assay, in single point, at 2uM, 72h; a lower Z score goes with more inhibition. The format is functional, Erythrocyte. The following applies: timepoint 72 hour.
For `C=CCN(CC=C)S(=O)(=O)c1cc(F)ccc1OC`, the “% Inhibition” value is given as -8% and the Z score turned out to be 1.67.

`Cc1[nH]ccc(=O)c1Cc1c(Cl)cccc1Cl`: the “% Inhibition” value came out at 40% and the Z score is recorded as -5.13.

As to `O=C(NCc1cccs1)C1CCN(c2cnc(N3CCCC3)nc2)CC1`, the “% Inhibition” value was determined as 2% and the Z score is -0.39.

As for `Cc1c(C(=O)N2CCN(C(=O)c3ccco3)CC2)cccc1-n1nnc2cccnc21`, the “% Inhibition” value is listed as 0% and the Z score is -0.02.

As to `COc1ccc2nc(CN(C)C3(CO)CCOCC3)sc2c1`, the “% Inhibition” value is -15% and the Z score is listed as 2.02.

For the compound `COc1ccccc1NC(=O)[C@@H](C)C1CCN(C(=O)Nc2ccccc2)CC1`, the “% Inhibition” value was -5% and the Z score is 0.9.

In the case of `CCc1nnc(-c2cccn2CC(=O)Nc2ccc(OC)cc2)o1`, the “% Inhibition” value is on record as -18% and the Z score was 1.86.

Take `O=C1C[C@H](c2noc(C3CCC3)n2)CN1c1ccccc1`: the “% Inhibition” value is -17% and the Z score was determined as 2.05.

As for `Cc1cnc(C)c(NCC(C)(C)N2CCN(C)CC2)n1`, the “% Inhibition” value is reported as -8% and the Z score amounted to 1.14.

Take `O=C(Nc1cc(C(F)(F)F)ccc1Cl)[C@H]1CCCN(c2cc(C3CC3)ncn2)C1`: the “% Inhibition” value is listed as -4% and the Z score stood at 0.82.

As to `COCC(=O)N(C1CCOCC1)[C@H]1CCCN(C(=O)c2ccc(OC)cc2C)C1`, the “% Inhibition” value was 31% and the Z score is listed as -3.51.

Regarding `O=C(c1cccc(O)c1OC(F)(F)F)N1CCC=C(F)C1`, the “% Inhibition” value came to 0% and the Z score worked out at 0.01.

Take `O=C(c1ccc(Cl)c(Cl)c1O)N1CCCN2CCC[C@H]2C1`: the “% Inhibition” value is on record as -2% and the Z score is recorded as 0.36.

Consider `O=S(=O)(N1CCOCC1)N1CCC[C@H]1c1ccncc1`, for which the “% Inhibition” value was determined as 0% and the Z score was found to be 0.01.

Turning to `O=C(c1ccc(-c2ccco2)nc1)c1ccco1`, the “% Inhibition” value is reported as -22% and the Z score came to 3.25.

`C[C@H](NS(=O)(=O)c1ccc(F)cc1)C(=O)NC1CCN(CC(=O)Nc2ccccc2)CC1`: the “% Inhibition” value turned out to be 0% and the Z score is 0.02.

As for `Cc1noc(C(C)NC(c2ccccc2)C2CCC2)n1` (stereo not given), the “% Inhibition” value is given as -9% and the Z score is 1.07.

Regarding `Cc1nnc(N2CC(C)OC(C)C2)s1` (stereo not given), the “% Inhibition” value is on record as -18% and the Z score is listed as 2.36.

`C[C@H](NC(N)=O)C(=O)NCCCc1nc2c(s1)CCCC2`: the “% Inhibition” value is listed as -10% and the Z score is listed as 1.89.

Consider `CN1CCO[C@@H](CNC(=O)c2cn[nH]c2)C1`, for which the “% Inhibition” value is -19% and the Z score is reported as 2.17.

With `CCc1noc(CNC(=O)C[C@H]2CN(C(C)C)CCO2)n1`, the “% Inhibition” value was -7% and the Z score is recorded as 0.87.

Turning to `Cc1nn(-c2nccs2)cc1Br`, the “% Inhibition” value was 0% and the Z score is -0.08.

Regarding `COc1cc2c(cc1CN1CC=C(C)CC1)OCCCO2`, the “% Inhibition” value was -12% and the Z score came out at 2.27.

Turning to `O=C(O)[C@H]1CCCN(C(=O)c2nn(-c3cccc(C(F)(F)F)c3)c3c2CCC3)C1`, the “% Inhibition” value is listed as -10% and the Z score was determined as 0.9.

As for `C[C@@H](NC(=O)c1cn(C)nc1C1CC1)c1ncc[nH]1`, the “% Inhibition” value is listed as -1% and the Z score was found to be 0.13.

In general, % Inhibition refers to the change of the read-out against control, counted positive when it falls.
